Test results reported in the supplement of paper PMC4604168 (melanoma cell lines).
The list shows a part of the results. Many values rest on one well or one pass, so single values are uncertain.

How the values were obtained:
Test in all cases: cell count relative to DMSO control; melanoma cells; higher = more viable cells
Conditions in all cases: library dose: low library concentration; 72 h
MeWo = tested on: MeWo
RPMI7951 = tested on: RPMI7951
RVH-421 = tested on: RVH-421
SkMel28 = tested on: SkMel28
SkMel30 = tested on: SkMel30
SkMel5 = tested on: SkMel5
UACC257 = tested on: UACC257
UACC62 = tested on: UACC62
WM115 = tested on: WM115
WM1716 = tested on: WM1716
WM1745 = tested on: WM1745
WM3526 = tested on: WM3526
WM3619 = tested on: WM3619
WM451Lu = tested on: WM451Lu
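Also: cell number obtained by counting DAPI-stained nuclei in high-throughput microscope images with image analysis software, screen run in 1,536-well plates.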

| Compound | cell count (MeWo) [%] | cell count (RPMI7951) [%] | cell count (RVH-421) [%] | cell count (SkMel28) [%] | cell count (SkMel30) [%] | cell count (SkMel5) [%] | cell count (UACC257) [%] | cell count (UACC62) [%] | cell count (WM115) [%] | cell count (WM1716) [%] | cell count (WM1745) [%] | cell count (WM3526) [%] | cell count (WM3619) [%] | cell count (WM451Lu) [%] |
| --- | --- | --- | --- | --- | --- | --- | --- | --- | --- | --- | --- | --- | --- | --- |
| COc1ccc(-c2ccc3c(N4CCOCC4)nc(N4C[C@@H](C)O[C@@H](C)C4)nc3n2)cc1CO + Oc1nc(-c2ccc(C(F)(F)F)cc2)nc2c1CSCC2 [XAV939] (first compound 0.02 µM, partner dose 2 µM) | 78.9 | 86.3 | 85.7 | 91.9 | 86.1 | 83.9 | 81.4 | 84.7 | 79.2 | 55.4 | 78.7 | 82.1 | 84 | 99.7 |
| N#Cc1c(O)c2c(-c3ccc(-c4ccccc4O)cc3)csc2[nH]c1=O + COc1ccc(-c2ccc3c(N4CCOCC4)nc(N4C[C@@H](C)O[C@@H](C)C4)nc3n2)cc1CO [KU0063794] (first compound 2 µM, partner dose 0.02 µM) | 95.7 | 112 | 89.5 | 97.8 | 74.4 | 98.3 | 85.2 | 99.7 | 98 | 106 | 99.3 | 89.7 | 111 | 94.5 |
| N#Cc1c(O)c2c(-c3ccc(-c4ccccc4O)cc3)csc2[nH]c1=O + c1cc(-c2cnn3cc(-c4ccc(OCCN5CCCCC5)cc4)cnc23)ccn1 [Dorsomorphin] (first compound 2 µM, partner dose 0.4 µM) | 99.3 | 94.4 | 94.4 | 85.5 | 95.8 | 96.2 | 88.5 | 89.9 | 103 | 112 | 95.1 | 102 | 102 | 109 |
| COC(=O)c1sccc1S(=O)(=O)Nc1ccc(Nc2ccccc2)cc1OC + O=S(=O)(c1ccccc1)N(CC(F)(F)F)c1ccc(C(O)(C(F)(F)F)C(F)(F)F)cc1 [T0901317] (first compound 1 µM, partner dose 1.4 µM) | 109 | 101 | 93 | 74.2 | 105 | 90.3 | 103 | 94.4 | 101 | 119 | 77.7 | 92.2 | 116 | 97.5 |
| COc1ccc(-c2ccc3c(N4CCOCC4)nc(N4C[C@@H](C)O[C@@H](C)C4)nc3n2)cc1CO + CC(C)CCN1c2nc(Nc3cc(F)c(O)c(F)c3)ncc2N(C)C(=O)C1C [BID1870] (first compound 0.02 µM, partner dose 0.2 µM) | 85 | 124 | 88.6 | 94.9 | 90.2 | 86 | 91.9 | 67.8 | 89.9 | 83.9 | 95.9 | 98 | 88.8 | 115 |
| COc1cc2ncnc(Nc3ccc(Oc4ccccc4)cc3)c2cc1OC + COc1cc(N2CCC(N3CCN(C)CC3)CC2)ccc1Nc1ncc(Cl)c(Nc2ccccc2S(=O)(=O)C(C)C)n1 [NVP-TAE684] (first compound 2 µM, partner dose 0.08 µM) | 82.6 | 114 | 97 | 90.1 | 113 | 86.7 | 82.2 | 117 | 97.6 | 109 | 75.1 | 111 | 88.5 | 113 |
| COc1ccc(-c2ccc3c(N4CCOCC4)nc(N4C[C@@H](C)O[C@@H](C)C4)nc3n2)cc1CO + COc1cc(N2CCC(N3CCN(C)CC3)CC2)ccc1Nc1ncc(Cl)c(Nc2ccccc2S(=O)(=O)C(C)C)n1 [NVP-TAE684] (first compound 0.02 µM, partner dose 0.08 µM) | 81.3 | 85.7 | 96 | 77.5 | 104 | 81.4 | 65.2 | 96.8 | 97.8 | 95.9 | 101 | 84.4 | 101 | 99.7 |
| O=S(=O)(c1ccccc1)N(CC(F)(F)F)c1ccc(C(O)(C(F)(F)F)C(F)(F)F)cc1 + Cn1cc(/C=C2\C(=O)Nc3cccnc32)c2ccccc21 [GW441756] (first compound 1.4 µM, partner dose 0.4 µM) | 103 | 114 | 89 | 92.1 | 107 | 85.2 | 120 | 100 | 95.9 | 101 | 80.7 | 65.6 | 136 | 94.1 |
| CCN(CC)CCCCNc1ncc2cc(-c3cc(OC)cc(OC)c3)c(NC(=O)NC(C)(C)C)nc2n1 + COc1cc2ncnc(Nc3ccc(Oc4ccccc4)cc3)c2cc1OC [SrcI1] (first compound 0.1 µM, partner dose 2 µM) | 88.8 | 104 | 104 | 83.2 | 83.2 | 102 | 113 | 96.4 | 110 | 106 | 87 | 100 | 77.5 | 124 |
| COc1ccc(-c2ccc3c(N4CCOCC4)nc(N4C[C@@H](C)O[C@@H](C)C4)nc3n2)cc1CO + CCN(CC)CCCCNc1ncc2cc(-c3cc(OC)cc(OC)c3)c(NC(=O)NC(C)(C)C)nc2n1 [PD173074] (first compound 0.02 µM, partner dose 0.1 µM) | 97 | 93.2 | 111 | 87.6 | 96.5 | 105 | 95.6 | 86.4 | 97.7 | 106 | 94.7 | 87.4 | 81.7 | 107 |
| N#Cc1c(O)c2c(-c3ccc(-c4ccccc4O)cc3)csc2[nH]c1=O + COc1cc(N2CCC(N3CCN(C)CC3)CC2)ccc1Nc1ncc(Cl)c(Nc2ccccc2S(=O)(=O)C(C)C)n1 [NVP-TAE684] (first compound 2 µM, partner dose 0.08 µM) | 101 | 103 | 17.2 | 84.7 | 115 | 94.2 | 88.4 | 92.7 | 102 | 91.8 | 100 | 111 | 115 | 96.1 |
| O=S(=O)(c1ccccc1)N(CC(F)(F)F)c1ccc(C(O)(C(F)(F)F)C(F)(F)F)cc1 + O=C1NC(=O)/C(=C/c2ccc(-c3ccc(F)cc3O)o2)S1 [AS252424] (first compound 1.4 µM, partner dose 1 µM) | 91.2 | 109 | 41.8 | 77.1 | 111 | 99.7 | 104 | 103 | 84.7 | 85 | 75.4 | 90.8 | 75.5 | 147 |
| COc1ccc2c(c1)CCC1C2CCC2(C)C(NCCCCCCN3C(=O)C=CC3=O)CCC12 (centres undefined) + CCN(CC)CCCCNc1ncc2cc(-c3cc(OC)cc(OC)c3)c(NC(=O)NC(C)(C)C)nc2n1 [PD173074] (first compound 0.4 µM, partner dose 0.1 µM) | 95.1 | 71.5 | 97.7 | 91.5 | 98.5 | 96 | 98.4 | 108 | 96.7 | 82.5 | 81 | 92 | 104 | 103 |
| Oc1cc(-c2nc(-c3ccccc3)[nH]c2-c2ccncc2)ccc1Cl + O=c1cc(-c2cccc3c2Sc2ccccc2S3)oc(N2CCOCC2)c1 [KU55933] (first compound 0.2 µM, partner dose 1 µM) | 100 | 108 | 84.8 | 82.1 | 98.5 | 110 | 101 | 68.2 | 70.9 | 105 | 87.3 | 70.8 | 102 | 68.1 |
| COc1ccc(COc2ccc(Cc3cnc(N)nc3N)cc2OC)cc1 + Oc1cc(-c2nc(-c3ccccc3)[nH]c2-c2ccncc2)ccc1Cl [L779450] (first compound 1 µM, partner dose 0.2 µM) | 104 | 104 | 101 | 80.4 | 97.9 | 103 | 90.8 | 70.7 | 89.5 | 120 | 86.8 | 76.8 | 92.3 | 104 |
| Oc1nc(-c2ccc(C(F)(F)F)cc2)nc2c1CSCC2 + CC(C)CCN1c2nc(Nc3cc(F)c(O)c(F)c3)ncc2N(C)C(=O)C1C [BID1870] (first compound 2 µM, partner dose 0.2 µM) | 97.2 | 111 | 75.5 | 81.6 | 97.9 | 79.7 | 69.8 | 99.9 | 89.1 | 64.2 | 65.8 | 108 | 79.9 | 94.1 |
| N#Cc1c(O)c2c(-c3ccc(-c4ccccc4O)cc3)csc2[nH]c1=O + COc1ccc2c(c1)CCC1C2CCC2(C)C(NCCCCCCN3C(=O)C=CC3=O)CCC12 [U73122] (first compound 2 µM, partner dose 0.4 µM) | 99.4 | 86.9 | 102 | 85.8 | 111 | 94.7 | 84.2 | 92.1 | 101 | 95.3 | 107 | 117 | 95.1 | 115 |
| COc1ccc(-c2ccc3c(N4CCOCC4)nc(N4C[C@@H](C)O[C@@H](C)C4)nc3n2)cc1CO + O=S(=O)(c1ccccc1)N(CC(F)(F)F)c1ccc(C(O)(C(F)(F)F)C(F)(F)F)cc1 [T0901317] (first compound 0.02 µM, partner dose 1.4 µM) | 88.2 | 97 | 89.7 | 72.2 | 76.1 | 79.5 | 63.4 | 78.5 | 87.8 | 85.9 | 75.2 | 82.7 | 82.9 | 78.2 |
| COC(=O)c1sccc1S(=O)(=O)Nc1ccc(Nc2ccccc2)cc1OC + COc1ccc(-c2ccc3c(N4CCOCC4)nc(N4C[C@@H](C)O[C@@H](C)C4)nc3n2)cc1CO [KU0063794] (first compound 1 µM, partner dose 0.02 µM) | 99.5 | 93.7 | 109 | 86.4 | 97.3 | 95.7 | 93.5 | 96.2 | 92.1 | 102 | 93.7 | 101 | 90.8 | 117 |
| O=C(O)C(=O)Nc1sc2c(c1C(=O)O)CCNC2 + CC(C)CCN1c2nc(Nc3cc(F)c(O)c(F)c3)ncc2N(C)C(=O)C1C [BID1870] (first compound 1.66667 µM, partner dose 0.2 µM) | 92.8 | 100 | 92.6 | 87.1 | 83.4 | 89 | 83.5 | 81.3 | 98.3 | 103 | 75.2 | 87 | 155 | 112 |
| COc1cc(N2CCC(N3CCN(C)CC3)CC2)ccc1Nc1ncc(Cl)c(Nc2ccccc2S(=O)(=O)C(C)C)n1 + CC(C)CCN1c2nc(Nc3cc(F)c(O)c(F)c3)ncc2N(C)C(=O)C1C [BID1870] (first compound 0.08 µM, partner dose 0.2 µM) | 83.9 | 76.5 | 104 | 78.9 | 77 | 75.1 | 65.3 | 81.7 | 89 | 76 | 56.2 | 78.2 | 87.8 | 105 |
